Test results reported in patent US20240190987A1, “Engineered EpCam Binding Antibodies” (TigaTX, priority 2021, published 2024).

Assays:
human PBMCs = assay: Surface staining of human PBMCs by flow cytometry; type: cell-based; details: TCRab+, CD4+ and CD8+ subsets
Description: (§1) FIG. 32 depicts Ab1070 binding to human and cynomolgus macaque PBMCs. Binding was measured by flow cytometry using a secondary fluorescent antibody (IgG-PE). T-cell subsets were identified using additional fluorescent antibodies against TCRab, CD4 and CD8 and gated prior to quantifying the median fluorescence intensity (MFI) of the IgG-PE channel. […] The assay was performed with up to 10 μM antibodies (titrated as indicated).
(§2) Peripheral blood mononuclear cells (PBMCs) from healthy cynomolgus macaques (Chinese origin) were obtained commercially (iQ Biosciences, Berkeley, CA). Peripheral blood mononuclear cells (PBMCs) from healthy human donors were isolated from leukapheresis packs (leukopaks) from deidentified healthy adult donors (StemCell Technologies, Vancouver, BC). Human PBMCs were isolated using the EasySep Direct Human PBMC Kit (StemCell Technologies) then cryopreserved in DMEM with 10% FBS and 10% DMSO. Frozen PBMC cryovials were thawed on the day of experiments and washed complete growth media (DMEM+10% FBS+1% penicillin/streptomycin). Cells were resuspended in growth media and transferred to a 96-well U-bottom plate at 55,000 cell/well. Human TruStain FcX (Fc Receptor Blocking Solution; Catalog number 422302; BioLegend, San Diego, CA) was added at a 1:20 final dilution of the manufacturer's stock and incubated for 10 minutes at room temperature in a volume of 25 μL. […]

cynomolgus macaque PBMCs = assay: Surface staining of cyno PBMCs by flow cytometry; type: cell-based; details: TCRab+, CD4+ and CD8+ subsets
Description: as §1, §2

AEKO cells = assay: Surface staining of AEKO tumor cells by flow cytometry; type: cell-based, human; details: […]-1 μM
Description: Surface binding was measured on an isogenic panel of EpCAM-knockout and EpCAM-overexpressing cell lines derived from A-431, a human epidermoid carcinoma cell line (FIG. 34). AEKO and AEPO are isogenic control cell lines in which there is zero EpCAM expression (AEKO) or high EpCAM expression (AEKO-E4). AEKO is a commercially available subclone of A-431 in which human EpCAM expression is “knocked out” (disrupted) by a frameshift mutation (catalog number ab261902; Abcam, Cambridge, UK). AEPO was developed using the AEKO cell line as a starting point and restoring expression of human EpCAM by transducing with a lentiviral vector containing human EpCAM downstream of an EF1α promoter. Cells were stained with Ab1070, a conventional TCE containing the M37-H6L2 variant of the M37 clone, at a range of concentrations from 0.015 nM-1 μM.
A single-cell suspension of adherent tumor cell lines was obtained by incubating 5 minutes with TrypLE Express (Gibco, Waltham, MA) and quenching with growth media (DMEM+10% FBS+1% penicillin/streptomycin), centrifuging at 400 rcf×5 minutes, aspirating the supernatant, and resuspending the cell pellet in CSM (AutoMACS Running Buffer, Miltenyi Biotec, Bergisch Gladbach, Germany). […]

B1: Ab1070: conventional TCE containing the M37-H6L2 variant of the M37 clone (antibody)
heavy 1: EVQLVESGGGLVQPGGSLRLSCAASGFTFNTYAMNWVRQAPGKGLEWVARIRSKYNNYATYYADSVKGRFTISRDDSKSILYLQMNSLRAEDTAVYYCVRHGNFGNSYVSWFAYWGQGTLVTVSSGGGGSGGGGSGGGGSDIQVTQSPSSLSASVGDRVTITCRSSTGAVTTSNYANWVQQKPGKAFKGLIGGTNKLAPGVPSRFSGSLSGDDATLTISSLQPEDFATYYCALWYSNLWVFGQGTKLEIKGGGGS[human IgG1 Fc with changes left out]
heavy 2: EVQLVESGGGLVQPGGSLRLSCAASGFTFSNYWMNWVRQAPGKGLEWVAQIRVKSENFATHYADSVKGRFTISRDDSKSTVYLQMNSLRAEDTAVYYCTLYDGFSWGQGTLVTVSSASTKGPSVFPLAPSSKSTSGGTAALGCLVKDYFPEPVTVSWNSGALTSGVHTFPAVLQSSGLYSLSSVVTVPSSSLGTQTYICNVNHKPSNTKVDKKV[human IgG1 Fc with changes left out]
light: DIQMTQSPSSLSASVGDRVTITCSASSSVSSGNFHWYQQKPGKAPKLLIYRTSNLASGVPSRFSGSGSGTDYTLTISSLQPEDFATYYCQQWSGYPYTFGQGTKVEIKRTVAAPSVFIFPPSDEQLKSGTASVVCLLNNFYPREAKVQWKVDNALQSGNSQESVTEQDSKDSTYSLSSTLTLSKADYEKHKVYACEVTHQGLSSPVTKSFNRGEC
modifications: REGION 1..482: note = Ab1070 Knob HC; REGION 1..446: note = Ab1070 Hole HC; REGION 1..215: note = Ab1070 Hole LC
notes: conventional TCE containing the M37-H6L2 variant of the M37 clone
Question: What does the source list for B1?
Answer: binding to human PBMC T-cell subsets (human PBMCs): dose-dependent; binding to cyno PBMC T-cell subsets (cynomolgus macaque PBMCs): dose-dependent; surface binding to EpCAM-knockout AEKO cells (AEKO cells): but not the AEKO cells
